From publication PMC5988349 (Nature, 2018)

Molecular target: the molecule itself
Assay: cryo-EM structure

B1: dynein light chain Robl1 (natural protein)
chain: not shown
B1: binds.
